“And” between values parts separate entries of the source, which are not always exact repeats. Equal values may be shown once.
Columns and labels:
[1] = system: peripheral blood lymphocytes; design: species or system C57BL/6 mice; settings: mouse, in vivo
[2] = system: lymphocyte progenitors (immature T cells, immature B cells); design: species or system mice; settings: mouse, in vivo, iv
rVSV-reactive CTLs = system: rVSV-reactive CTLs; design: species or system C57BL/6 mice; settings: mouse, in vivo
B16-F10 cells [3] = experiment: In vitro B16-F10 cell growth; format: cell-based
NK cells = system: NK cells; design: species or system C57BL/6 mice; settings: mouse, in vivo
CD4+Foxp3+ Tregs = experiment: CD4+Foxp3+ Treg quantification during booster immunization
[4] = system: DCT-specific CD8+ T cells; design: species or system C57BL/6 mice; settings: mouse, in vivo
normal melanocytes = settings: mouse, in vivo
[5] = system: CD8+ T cells (splenocytes) exposed to DCT180-188 peptide; design: species or system C57BL/6 mice; settings: mouse, in vivo
[6] = system: DCT-specific IgG antibodies; design: species or system C57BL/6 mice; settings: mouse, in vivo
[7] = system: peripheral blood lymphocytes; format: in vivo, C57BL/6 mice
tumor = experiment: Viral replication and MHC expression within the tumor; format: in vivo; settings: MS-275 in conjunction with oncolytic vaccine therapy
B16-F10 cells [8] = system: B16-F10 cells; design: species or system C57BL/6 mice; settings: mouse, in vivo

polyinosine-polycytidylic acid [PolyI:C]
lymphopenia, peripheral blood lymphocyte counts [1]: identical lymphopenia

Nc1ccccc1NC(=O)c1ccc(CNC(=O)OCc2cccnc2)cc1 [MS-275, entinostat]
lymphocyte progenitors in thymus and bone marrow [2]: depleted
rVSV-reactive CTLs (rVSV-reactive CTLs): significantly reduced
B16-F10 cell growth (B16-F10 cells [3]): inhibition
effect on rVSV-increased number of activated circulating NK cells (NK cells): did not affect this
reduction in number of Tregs (CD4+Foxp3+ Tregs; MS-275 during booster immunization): 75%
intensity of Foxp3 expression by Tregs (CD4+Foxp3+ Tregs; MS-275 treatment during booster immunization): significantly lower
frequency of CD8+ T cells that co-expressed TNF-α [4]: increased
intensity of IFN-γ production by CD8+ T cells [4]: increased
intensity of TNF-α production by CD8+ T cells [4]: increased
magnitude of the DCT-specific CD8+ T cell response [4]: unaffected
number of DCT-specific CTL [4]: not affected
induction of systemic vitiligo by prime-boost vaccination (normal melanocytes): almost completely abolished
more CD8+ T cells responding to the lowest concentration of peptide [5]: 5.6 ×
extension of PolyI:C-induced lymphopenia [1]: extended
secondary DCT-specific antibody response [6]: not affected
extension of VSV-induced lymphopenia ([7]; MS-275 co-administered with VSV, 30-day period): significantly extended
B cells eliminated ([7]; mouse, in vivo): 97%
circulating naïve CD8+ T cells ([7]; mouse, in vivo): profound loss
effect on peripheral blood lymphocyte counts ([7]; mouse, in vivo): modest effect
lymphopenia (total lymphocyte counts) ([7]; mouse, in vivo): transient but severe lymphopenia
reduction of total CD4+ T cells ([7]; mouse, in vivo): 77%
resting NK cells (CD107a-IFN-γ-) ([7]; mouse, in vivo): substantially reduced
MHC expression within the tumor (tumor): enhances
viral replication within the tumor (tumor): enhances
durable cure rate (B16-F10 cells [8]): 60-80%
efficacy in cancer model (B16-F10 cells [8]): no effect on efficacy
mice cured (B16-F10 cells [8]): 85% and 64%

— patent US9821054B2 (priority 2011, dated 2017)
